Reference: a collection of fitness landscapes (doi:10.1016/j.celrep.2020.107928)
In all, about 81,000 sequences were measured (“one-hybrid fitness for binding NBS DNA”: median about -0.1, highest 2% from about 0.36 on). The list shows a part of the results.

B1: Caulobacter ParB omega fusion; a variant is named by its letters at X, in order, B8GW30 (parent)
chain: MESVVVGEPGMSEGRRGLGRGLSALLGEVDAAPAQAPGEQLGGSREAPIEILQRNPDQPRRTFREEDLEDLSNSIREKGVLQPILVRPSPDTAGEYQIVAGERAWRAAQRAGLKTVPIMVRELDDLAVLEIGIIENVQRADLNVLEEALSYKVLMEKFERTQENIAQTIGKSXSHVANXMRLLXLPDEVQSYLVSGELTAXHARAIAAAADPVALAKQIIEGGLSVRETEALARKAPNLSAGKSKGGRPPRVKDTDTQALESDLSSVLGLDVSIDHRGSTGTLTITYATLEQLDDLCNRLTRGI

Variants of: B1
Assay: one-hybrid fitness for binding NBS DNA (the Noc-binding site; scaled: cognate 1, non-cognate 0); higher = stronger binding
Settings: with NBS DNA site
In short: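 Bacterial one-hybrid selection in E. coli USO rpoZ- hisB- pyrF- with a HIS3 reporter carrying the site 19 bp from the promoter, screening Caulobacter ParB libraries with four specificity codons randomised (NNS). Cells grew 48 hours at 37°C on M9-minus-histidine plus 0.1 mM IPTG and 5 mM 3-AT. Plasmids before and after selection were Illumina-sequenced, three replicate libraries pooled, and variants under 10 reads dropped. Fitness is the log change in variant-to-wild-type read ratio, rescaled to cognate 1, non-cognate 0.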

one-hybrid fitness for binding NBS DNA, 0.351:
RRKW

one-hybrid fitness for binding NBS DNA, 0.283:
RRGC

one-hybrid fitness for binding NBS DNA, 0.265:
KHKT

one-hybrid fitness for binding NBS DNA, ≤ 0.2:
MQPN
NFER
FQDS
VSPM
NPVL
RADC
CLST
CSDG
KLTA
LNAW
RYYK
TVAT
NHTR
EKQS
FVKH
QAWL
RWHS
HQRL
PYSV
RYAP
QMDA
MRKG
VEST
REPC
QETF
FIYR
EDKR
LTVR
TGFT
TFSY
QSHE
FKRR
ALYV
TEVE
QQWL
MRPG
RDGN
NPPD
ITDS
CGTT
QEPQ
PRVS
KWKR
AWMS
TLEN
CLMT
LDTE
QQWG
LLGW
TTTQ
LDAT
FVTV
IPKR
PMWR
TSPV
LWTS
WRKS
GFRN
MAFS
RHMP
SDVG
KIHG
RLMD
YTGI
HSRT
CNMM
AHTR
QDYC
SFNR
ESFV
EGHI
YWPG
DPKG
AGQD
QDIA
HQHT
LPEL
VHRM
LMTE
NFLM
VAHL
HKVI
RIWG
IQRA
SHFT
ICVG
HYPY
TIAS
QDRA
TAPT
GSAD
GIIS
YTEC
MAHF
TLHM
CTNW
TSER
KRTY
DCTG
HVSV
VPVL
MCSC
TPET
VWQS
LLTY
SSVE
LFVS
QDHY
YKIK
NGIW
RLLL
VSPF
GGIT
EDAY
EIGC
SANC
FWCS
HMRI
WPYE
PEPG
VGAV
GEGG
PEIP
MQTD
CPLV
HTNT
YSKG
AWCT
TATS
TPAD
RLIM
WVTD
SNAR
MDCS
PGIY
TWDL
GLNL
WRTY
PCHG
RIDE
YTTL
DQPL
EPPL
AMYH
RLWQ
HMTL
QHCC
HYIT
CLGT
DLRS
RKFE
WGLA
SNVE
HFNI
YIDK
SIGF
RDTL
IEAC
WRVL
SVIE
KGNS
FMLR
PDIW
PWSM
MESG
PPPW
HIII
KRSI
RIGH
DWKG
YWCR
MVLT
NKYQ
HDDF
RHDI
WVHS
HCDK
FLRL
VTRE
MQTG
RCYW
RVDM
ECHS
TIKN
TCTT
MIRF
FGLV
RFFL

one-hybrid fitness for binding NBS DNA, 0.545:
RMNR

one-hybrid fitness for binding NBS DNA, 0.66:
KRKT

one-hybrid fitness for binding NBS DNA, 0.339:
RQKA

one-hybrid fitness for binding NBS DNA, 0.523:
KKKR
